From the supplement of paper PMC11417369
± gives the standard deviation of the averaged measurements. Some of the results follow.

System: PfAP2-I AP2 domain 3 (GST-tagged)
Test: gcPBM binding intensity (ln(normalized median fluorescence intensity)); higher = stronger DNA binding
Summary of the method: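 Each value is the highest Masliner-normalised natural-log median intensity across replicate spots of either orientation of a probe. The probes were primer-extended double-stranded 36-bp intergenic genomic sequences on an Agilent 4 × 180k array, alongside negative controls, exposed for 1 h to GST-tagged P. falciparum DNA-binding domains expressed in E. coli. Bound protein was picked up with Alexa488 anti-GST antibody and scanned at 488 nm.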

Row | Sequence | gcPBM binding intensity (ln)
1 | AAAAAAAAAAAAAAAAGTACATATATATATATAATT [XGTACX_site4437] | 8.49 ± 0.4
2 | TATTTAAATACTGACGCATGCATAAGGAGTAATAGT [TGCATGCA_site465] | 8.4 ± 0.61
3 | AAACATTTATGAAGGTGTACAAAAATGAATTAAAAA [XGTACX_site7035] | 7.92 ± 0.5
4 | TTTTTTTTTTTTTTTTGTACTTATAAAATAACATGT [XGTACX_site134] | 8.13 ± 0.82
5 | TAATACTTAGAGAAAAGTACGTATGAACTTATGTAA [XGTACX_site5504] | 7.76 ± 0.27
6 | AAGGCATGACTATCTGCACACATAAAAATAAGAAAT [CACACA_site8180] | 8.62 ± 0.39
7 | AATTTTTTTTTTTTGTGTCCTCATAATTCTTCATTC [XGTACX_site5042] | 7.93 ± 0.45
8 | TAAAAAAAAATATAATGTACGTATAAATATATATTA [XGTACX_site5085] | 7.75 ± 0.39
9 | TAAACATAATAATATACACACATATATTGATATATA [CACACA_site2144] | 7.29 ± 0.56
10 | TATATTTATTTAAAAACATGCATTTTTTTTTTCCGT [TGCATGCA_site44] | 7.92 ± 0.61
11 | TTTTTTTTTTTTACATGTACTTATTTTAAATATAAA [XGTACX_site805] | 8.04 ± 0.57
12 | ATTTTTTTGGTAATTTGTACATAATATATACATAAT [XGTACX_site3742] | 8.13 ± 0.57
13 | AAAATTAAAACCTACACACACATTTAAAAAAAAAAA [CACACA_site3068] | 7.83 ± 0.6
14 | TATATTATAGGTTGTGTACACATATTATATAGTACT [CACACA_site4583] | 8.14 ± 0.24
15 | ATATATTTATAGACTTGTACATATATATACGATATA [XGTACX_site8890] | 7.6 ± 0.42
16 | TAACTATTATAAAAATGTACAAATGAAAATATTTTT [XGTACX_site1438] | 7.76 ± 0.52
17 | TACCAAAAAAAAAAAAATAAAAATAAAAAAAAAAAT [CACACA_negctrl_site1714] | 7.45 ± 0.68
18 | AAAATAAAAATAAAAGCACACATAAATATATATATA [CACACA_site8409] | 9.1 ± 0.085
19 | TAAAAGTTTTTATACATACACACCTATAAATTAAGT [CACACA_site2446] | 7.87 ± 0.51
20 | CTTTATTATAAGATTACACACATGTCTTATAATTTA [CACACA_site5715] | 7.7 ± 0.58
21 | TTCCTGTTAATTACAACACACAATTTTTATTTTATG [CACACA_site779] | 8.31 ± 0.24
22 | TAATTAAATACATTAACACACACACTAATATATACA [CACACA_site8938] | 8.01 ± 0.35

Row | Sequence | gcPBM binding intensity (ln)
23 | ATATTTTTATATAATGAACACACATATTATATCATT [CACACA_site8446] | 7.71 ± 0.54
24 | TAAAAGGATACATATACACACATATATATATATATA [CACACA_site2791] | 9.45 ± 0.67
25 | TTCTTCAACAAAAAAATAAAAATAAAATAATAAAAA [GTGCAC_negctrl_site619] | 7.68 ± 0.52
26 | TTTAAAAAATTATATTCACACACATACACATATATA [CACACA_site8076] | 7.75 ± 0.3
27 | ATAAATCGATAAAATATATGCTACATGAATAAATAA [XGTACX_negctrl_site604] | 7.66 ± 0.55
28 | AAAATATGTTAATATTGTACTTAAATAAAAAAAATA [XGTACX_site7152] | 7.74 ± 0.46
29 | ATTCTTAAAATAAAATGTACGAAAAAAAAAAAAAAA [XGTACX_site1657] | 8.12 ± 0.71
30 | ATACACATAACATATATATATATATATATATATATC [CACACA_negctrl_site278] | 8.48 ± 0.35
31 | TATATATATATAAACGCATGTAATTTATACACACAT [TGCATGCA_site946] | 9.21 ± 0.36
32 | ATCTTTCCTTTTGCATGTACATATGGAAATACTTTT [XGTACX_site6995] | 8.31 ± 0.7
33 | ATAATTAAGTTATGTGTGCACTGTTAAAAATAAATG | 10.5 ± 0.25
34 | TTTTATGATATTTACACACAAACGTGAGATAGCTCA [CACACA_site2311] | 7.72 ± 0.73
35 | AATATAATATCTATAATATAAAAAAAACAAAAAAAA [CACACA_negctrl_site875] | 7.5 ± 0.53
36 | CGACTTTTAAAATATACACACATATAAATAAATATA [CACACA_site6523] | 7.59 ± 0.35
37 | TTACAATATAATAAATGTACATATAACAAATATATA [XGTACX_site2199] | 7.67 ± 0.32
38 | TTTTTTTTTTTTTGTAGTACATACTATTTTATTAAT [XGTACX_site950] | 8.01 ± 0.67
39 | AGAATTATATACACAAGTACATAATGACATATATAT [XGTACX_site5617] | 7.71 ± 0.49
40 | TAGATGTATTTTTAAAGTACTTTTTAATATATAATC [XGTACX_site1431] | 7.66 ± 0.3
41 | TAAAAAATTATATTCACACACATACACATATATATA [CACACA_site545] | 7.92 ± 0.76
42 | ATATTAAATATATACAGTACACATTACAATACAATA [XGTACX_site3221] | 7.84 ± 0.47
43 | CTTTGTAGTTGGTCCACACACATATCTGGAAGAATA [CACACA_site4834] | 8.01 ± 0.39
44 | TTTCTTAAACCGTACAGTACACACCTTTATAATGTT [XGTACX_site434] | 8.23 ± 0.38

Row | Sequence | gcPBM binding intensity (ln)
45 | TAAGCGTTTTTTAAAACACACATAAGAACTAAATGA [CACACA_site1670] | 7.62 ± 0.76
46 | TATTTTCCATGAGGTAGTACACATTAAAAAATCGTT [XGTACX_site6887] | 7.87 ± 0.62
47 | AAGGTTTTGGGTTTTAATTAATTTAATATGATTATA [XGTACX_negctrl_site147] | 7.76 ± 0.59
48 | TAATATTAAAAAGAGACACACAAAAATATTAAAAAA [CACACA_site3120] | 7.76 ± 0.88
49 | TTACACCTTAGGATCTGTACAAATATATGACAAATC [XGTACX_site4333] | 7.59 ± 0.56
50 | TTTCAACTTTTGTCATGTACACATAATTTTATTGCA [XGTACX_site6701] | 8.24 ± 0.51
51 | ATTTATTTATCAAATATTATCTTAAAAAAAAAAGAA [CACACA_negctrl_site1345] | 7.47 ± 0.54
52 | AACAAAAGAAAAAAATATATATATTCGTCCTATTTT [CACACA_negctrl_site444] | 7.47 ± 0.55
53 | CATCTGGTATCTAATAGTACATATATATAATATCTT [XGTACX_site2774] | 7.75 ± 0.52
54 | TTAAAAAATATATACGTTGATATAATACAACTTGAC [CACACA_negctrl_site1551] | 7.54 ± 0.52
55 | ATGTGTATATGTTAATGTACAAATTTTGAAAATGCC [XGTACX_site2685] | 8.14 ± 0.5
56 | TGTATAACCATAAATTGTACAGAAAAAAGTATAAAA [XGTACX_site1493] | 7.84 ± 0.67
57 | TATATATGCATTAAAGTGTTTTTTTTTTTTTTTTTT [CACACA_negctrl_site1353] | 9.12 ± 0.33
58 | ATTTTTTTTTTTTATGGTACACACACGCGTATGGTT [XGTACX_site3888] | 8.04 ± 0.65
59 | AAGGAAAAACCATTCGCACACACACCGAATATATAA [CACACA_site8403] | 8.13 ± 0.63
60 | TATATCAAATTCTAAACATGCACAAAAAACTTATAA [TGCATGCA_site510] | 8.66 ± 0.64
61 | TATTTATATAGACACACACACATATATTTATATTTT [CACACA_site7240] | 7.85 ± 0.35
62 | ACTTAAATAATACATACACACATGTACATACAGAAA [CACACA_site1595] | 8.24 ± 0.38
63 | TTTACATTTAATAAAAGTACTTATTTCATATACATA [XGTACX_site659] | 7.69 ± 0.28
64 | TAATTCTTTATAATAACACACATTCATATACAATAA [CACACA_site2499] | 7.71 ± 0.49
65 | GGTATTACCTGTTTGTTATGTAGATGTTGCTAGGAT [GTGCAC_negctrl_site736] | 8.14 ± 0.63
66 | ATACCAATAATATACATACACACATAAAGGTTTATA [CACACA_site314] | 7.77 ± 0.51

Row | Sequence | gcPBM binding intensity (ln)
67 | AAGAAAAACTAAAGAGTTCTGTTCATATCTCTTTGG [TGCATGCA_negctrl_site549] | 7 ± 0.75
68 | AATTTAAAGTTTTTTTTTTTTTTTTTTTTTTTTTTG [CACACA_negctrl_site1082] | 7.39 ± 0.31
69 | TGTATTATAATATTATGTACTTATAAATTTTATATT [XGTACX_site6432] | 7.69 ± 0.42
70 | ATATTATTATAAAGTGGTACAATAAATGGTATTATA [XGTACX_site391] | 8.02 ± 0.48
71 | TGGGTGGTAAAAATGTGTACATAAAAAAATAATGTT [XGTACX_site2235] | 8.695 ± 0.078
72 | TCTCACATTCTTATGGGTACACATGAGAAATTATAA [XGTACX_site6799] | 7.99 ± 0.26
73 | AATATACACCCGTGTACACAAATATTTACAAAACGT [CACACA_site4786] | 8.66 ± 0.58
74 | AAAAGGAATGAAAATTCACACAACTATAAATACATA [CACACA_site5337] | 7.49 ± 0.66
75 | GTTACACCAACAAACACACACACACCCACCCACAAA [CACACA_site2427] | 8.41 ± 0.71
76 | TTAGAATTTAGAGAAGTGCATATTAAGTTACGAATT [GTGCAC_site9861] | 9.71 ± 0.12
77 | AAAAAAAATATATATATTAAAGTTTTAATTTTTATA [CACACA_negctrl_site497] | 7.21 ± 0.41
78 | ATTATATATATATATAGTACTTTTTTTTTTTTTTTT [XGTACX_site8801] | 8.32 ± 0.4
79 | TTATTGGTTATATAAAGTACATTTGAAATATAATTG [XGTACX_site6553] | 7.67 ± 0.29
80 | ATAATAATTTTATGCACACAGAAAAATACAAGGTTA [CACACA_site3510] | 9.53 ± 0.26
81 | TTTTCTTGGTATATGATTTATCCTAAATAAGTAAAT [CACACA_negctrl_site294] | 7.57 ± 0.55
82 | TTGCCTGACTTGTTCACACATATTTATGATATACAT [CACACA_site5783] | 7.8 ± 0.82
83 | TCAAGTTTATATTAACTATTTATGAAAAAAAAAAGA [CACACA_negctrl_site902] | 7.67 ± 0.29
84 | ATATATTACAAATGGAGTACTAAAAATATTCTATAT [XGTACX_site6669] | 8.02 ± 0.38
85 | CTAAAAATTTTAATTGCACACCACGTTGGACTATTT [CACACA_site1489] | 9.67 ± 0.057
86 | TTACACTAAATATGTTCACACATTTTTTCCATCATA [CACACA_site4647] | 7.96 ± 0.66
87 | TATATATATGGGTTTACACACAATAATGAATTAAAA [CACACA_site915] | 8.05 ± 0.8
88 | CCCATGCATTTTTGCACACACATATATTTATAAATA [CACACA_site6785] | 9.75 ± 0.17
